Numbering of substitutions follows the chain as printed.
T1: ENTPD2 (Homo sapiens, UniProt Q9Y5L3)
T1 sequence (Q9Y5L3 1-495): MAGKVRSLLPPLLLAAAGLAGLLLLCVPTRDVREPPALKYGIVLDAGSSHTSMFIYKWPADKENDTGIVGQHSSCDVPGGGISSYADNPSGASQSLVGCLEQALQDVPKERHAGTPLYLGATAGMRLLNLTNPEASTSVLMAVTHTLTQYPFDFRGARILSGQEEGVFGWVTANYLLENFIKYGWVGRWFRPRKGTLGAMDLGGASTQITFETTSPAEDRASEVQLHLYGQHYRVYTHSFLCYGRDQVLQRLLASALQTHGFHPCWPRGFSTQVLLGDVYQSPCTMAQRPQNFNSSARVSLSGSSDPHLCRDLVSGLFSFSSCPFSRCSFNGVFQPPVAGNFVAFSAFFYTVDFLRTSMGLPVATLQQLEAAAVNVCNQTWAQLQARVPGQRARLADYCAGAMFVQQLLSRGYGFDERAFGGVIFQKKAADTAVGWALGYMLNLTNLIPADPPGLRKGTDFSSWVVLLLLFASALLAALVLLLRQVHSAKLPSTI

T2: mouse ENTPD2 (Mus musculus, UniProt O55026)
T2 construct: residues 29-462 of mouse or rat ENTPD2 (the extracellular domain); mouse IgK signal peptide (N); made in house; host or cells: FreeStyle 293-F cells, transient
T2 sequence (O55026 29-462): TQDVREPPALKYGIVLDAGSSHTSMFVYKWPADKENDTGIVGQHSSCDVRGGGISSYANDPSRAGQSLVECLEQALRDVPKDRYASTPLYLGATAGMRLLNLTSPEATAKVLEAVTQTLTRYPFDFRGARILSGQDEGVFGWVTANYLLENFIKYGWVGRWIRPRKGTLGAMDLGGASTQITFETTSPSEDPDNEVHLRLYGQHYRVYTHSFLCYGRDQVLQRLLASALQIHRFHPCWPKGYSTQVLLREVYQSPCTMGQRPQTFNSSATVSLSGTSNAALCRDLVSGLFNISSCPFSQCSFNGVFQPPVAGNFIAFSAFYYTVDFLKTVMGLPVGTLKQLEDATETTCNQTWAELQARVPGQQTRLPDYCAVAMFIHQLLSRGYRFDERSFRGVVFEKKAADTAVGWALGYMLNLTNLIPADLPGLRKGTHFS

T3: human ENTPD2 (Homo sapiens, UniProt Q9Y5L3)
T3 construct: residues 29-462 of human or cyno ENTPD2 were cloned into expression vector; GP67 signal peptide (N); made in house; host or cells: High Five (Trichoplusia ni) insect cells, baculovirus
T3 sequence (Q9Y5L3 29-462): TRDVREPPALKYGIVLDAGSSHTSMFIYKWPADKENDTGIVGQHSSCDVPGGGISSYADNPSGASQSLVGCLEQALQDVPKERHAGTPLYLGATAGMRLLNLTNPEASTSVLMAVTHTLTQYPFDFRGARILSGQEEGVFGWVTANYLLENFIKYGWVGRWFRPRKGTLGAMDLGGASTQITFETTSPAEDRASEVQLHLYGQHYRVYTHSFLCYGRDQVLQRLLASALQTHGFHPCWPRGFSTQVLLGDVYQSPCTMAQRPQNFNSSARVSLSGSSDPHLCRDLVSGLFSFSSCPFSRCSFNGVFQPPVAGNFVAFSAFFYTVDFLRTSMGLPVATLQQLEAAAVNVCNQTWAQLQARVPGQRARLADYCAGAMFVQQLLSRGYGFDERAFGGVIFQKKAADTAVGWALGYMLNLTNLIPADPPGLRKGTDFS

B1: mAb16: hybridoma-derived lead inhibitory anti-human ENTPD2 mAb (antibody)
heavy: DIQLQESGPGLVKPSQSLSLTCSVTGYSITSGYYWNWIRQFPGNKLEWMGYISYDGDNNYNPSLKNRISITRDTSKNQFFLKLSSVTTEDTATYYCAGGYYRYGLSYYYVMDYWGQGTSVTVSSASTKGPSVFPLAPSSKSTSGGTAALGCLVKDYFPEPVTVSWNSGALTSGVHTFPAVLQSSGLYSLSSVVTVPSSSLGTQTYICNVNHKPSNTKVDKRV[human IgG1 Fc skipped]
light: DTVLTQSPASLAVSLGQRATISCKASQSVDYDGNSYMNWYQQKPGQPPKLLIYAASNLESGIPARFSGSGSGTDFTLNIHPVEEEDAATYYCQQSNEDPPTFGGGTKLEIKRTVAAPSVFIFPPSDEQLKSGTASVVCLLNNFYPREAKVQWKVDNALQSGNSQESVTEQDSKDSTYSLSSTLTLSKADYEKHKVYACEVTHQGLSSPVTKSFNRGEC
B2: mAb4: anti-human ENTPD2 antibody generated by humanization and optimization of mAb16 (antibody)
heavy: QIQLQESGPGLVKPSQTLSLTCTVSGYSITSGYYWNWIRQHPGKGLEWIGYISYDADNNYNPSLKNRVTISRDTSKNQFSLKLSSVTAADTAVYYCAGGYYRYGLGSYRGSYYYVMDYWGQGTTVTVSSASTKGPSVFPLAPSSKSTSGGTAALGCLVKDYFPEPVTVSWNSGALTSGVHTFPAVLQSSGLYSLSSVVTVPSSSLGTQTYICNVNHKPSNTKVDKRV[human IgG1 Fc skipped]
light: ETVLTQSPATLSVSPGERATISCKASQSVDYEGHSYMNWYQQKPGQAPRLLIYAASNLESGIPARFSGSGSGTDFTLTISSVEPEDAATYYCQQSNEDPPTFGGGTKLEIKRTVAAPSVFIFPPSDEQLKSGTASVVCLLNNFYPREAKVQWKVDNALQSGNSQESVTEQDSKDSTYSLSSTLTLSKADYEKHKVYACEVTHQGLSSPVTKSFNRGEC
B3: mAb5: anti-human ENTPD2 antibody generated by humanization and optimization of mAb16 (antibody)
heavy: B2 heavy
light: B2 light with E32D, H34N

Key:
ENTPD2 = target: T1, ENTPD2; experiment: Hybridoma mAb screen, cell-based assay for inhibition of ATP hydrolysis by ENTPD2; conditions: hybridoma-derived mAbs
Text: Hybridoma-derived mAbs were screened in a cell-based assay for inhibition of ATP hydrolysis by ENTPD2.

mouse ENTPD2 = target: T2, mouse ENTPD2; experiment: Antibody specificity: binding to mouse ENTPD2; conditions: SPR
Method: FACS screening: Specific binding of candidate antibodies to endogenously expressed ENTPD2 was assessed by flow cytometry. Cells were rinsed thoroughly with 1×PBS and treated with Accutase (Millipore #SCR005) to lift from growth plates and resuspended at approximately 1×10^5 cells/90 μL in 1×FACS buffer (2% FBS+0.1% NaN3 in PBS). In a 96-well U-bottom plate, 10 μL of 10× antibody solution in FACS buffer was pre-seeded and 90 μL of cell suspension was added. […] Geometric mean fluorescence intensity was calculated on live single cells using FlowJo software.
ELISA screening on directly coated antigen: Maxisorp™ 384-well plates (Thermo Nunc) were coated with 2 μg/ml of recombinant ENTPD2 diluted in PBS. […] Plates were washed again and bound antibodies were detected by incubation with anti-hFc gamma conjugated to horseradish peroxidase (HRP; Jackson ImmunoResearch, Cat #115-035-098, diluted 1:5000 in 1×TBST+2% BSA) for 1 hr at room temperature followed by washing with TBST and afterwards addition of SureBlue Peroxidase substrate (KPL, #52-00-03) substrate. After 15 min, absorbance at 650 nm was recorded and analyzed in GraphPad Prism6.
Biacore™ Screening: Affinity was measured by determining the kinetic rate constants using surface plasmon resonance (SPR) on a Biacore™ T200 or T100 with the T200 sensitivity upgrade instrument (Biacore™, GE Healthcare). […]

human ENTPD2 = target: T3, human ENTPD2; experiment: Biacore SPR affinity to human ENTPD2 ECD; type: binding; conditions: 25° C.
Method: (§1) Biacore™ Screening: Affinity was measured by determining the kinetic rate constants using surface plasmon resonance (SPR) on a Biacore™ T200 or T100 with the T200 sensitivity upgrade instrument (Biacore™, GE Healthcare). Antibodies were captured on CM5 sensor chips (Biacore™, GE Healthcare) prepared with a mouse anti-human IgG Fc antibody (ThermoFisher catalogue #05-4200) amine coupled to the surface. […] ENTPD2 analytes were allowed to associate for 180 s and dissociate for up to 1800 s depending on the off-rate of the antibody at a flow rate of 30 μL/min. The running buffer was PBS pH 7.2 (prepared from a Corning 10× stock, cat #46-013-CM)+0.05% Tween 20. Regeneration was accomplished with 30 s injections of 3 or 4 M MgCl2 to remove all the captured antibody and remaining complex from the surface, after which fresh antibody was captured. The raw data were analyzed using Biacore™ T200 Evaluation Software version 1.0 and fit to a 1:1 binding model, with all parameters set to fit globally except for RI, which was set to fit locally.

[1] = system: cynomologus (cyno) ENTPD2; experiment: Biacore SPR affinity to cyno ENTPD2 ECD; type: binding, cynomolgus monkey; conditions: 25° C.
Method: as §1

Row | Molecule | inhibition of ATP hydrolysis by ENTPD2 (screen outcome) (ENTPD2) | Mouse ENTPD2 BIACore KD (mouse ENTPD2) | Human ENTPD2 ka (human ENTPD2) | Human ENTPD2 kd (human ENTPD2) | Cyno ENTPD2 ka [1] | Cyno ENTPD2 kd [1]
1 | B1 | lead inhibitory | – | – | – | – | –
2 | B2 | – | No binding | 300000 M⁻¹ s⁻¹ | 0.00022 s⁻¹ | 140000 M⁻¹ s⁻¹ | 0.0057 s⁻¹
3 | B3 | – | No binding | 270000 M⁻¹ s⁻¹ | 0.00016 s⁻¹ | 290000 M⁻¹ s⁻¹ | 0.003 s⁻¹

Source: patent US11939397B2, “ENTPD2 antibodies, combination therapies, and methods of using the antibodies and combination therapies” (Novartis AG, priority 2018, dated 2024)
